Test results: the supplement of paper PMC11417369
Some of the results follow.

system: PfSIP2 AP2 domain 1 (GST-tagged); experiment: gcPBM binding intensity (ln(normalized median fluorescence intensity)); higher = stronger DNA binding
Summary of the method: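 Alexa488 anti-GST antibody, scanned at 488 nm, detected GST-tagged P. falciparum DNA-binding domains that had been expressed in E. coli and incubated for 1 h on an Agilent 4 × 180k array. The array carried primer-extended double-stranded 36-bp intergenic genomic probes and negative controls. Binding intensity is the highest Masliner-normalised natural-log median intensity across replicate spots of either orientation of each probe.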

Sequence	gcPBM binding intensity (ln)
TATTCGAACAAAAATACATGCACATATGCATAATAA [TGCATGCA_site171]	9.27
TTTTCCAGTAAATATTTTTTTATAATATTTATATAT [CACACA_negctrl_site387]	6.9
AAATAAAATAAAATACGTACCTATTGTGCGTATTAA [XGTACX_site2912]	6.74
AATAATTTCCAAAAATGTACATATATTTACATATAT [XGTACX_site1790]	7.09
ATTTTAACTCCCCTTAATCTATTGTATATATATATA [CACACA_negctrl_site208]	9
TAATAAATGTTATTAGTGCATAATAGATAATATATT	8.29
TAAGAAATTGAGCGCACACATACATCTGTGGGATGG [CACACA_site1548]	6.71
ATTGTGGATATTCTTACACACAAATTTATTTATAAA [CACACA_site7267]	6.66
ATGTAAATATTTTGTATGCACTTTGATGCATCTTTT	9.57
TTTTTTTCTTCTTTTCTCTTAAAAATATTGAATATT [CACACA_negctrl_site1762]	6.73
AAAAAAAAAAAAAAAAAAAAAAAAAAAAAAAAAAAG [CACACA_negctrl_site292]	9.16
TCAAGAGTTATATAAACACACATACATACAGACATA [CACACA_site6998]	6.93
AGCAAAAAAAAAAAAAAAAAAAAAATAATAAAAAAT [TGCATGCA_negctrl_site202]	6.87
GTTTTCTAGTGGGGGTGTACATATTTATATTTAATA [XGTACX_site8378]	9.65
ATATATATATAATAAGTGCAAAAAAAAGAAAAAAAT	8.48
TTTTTTTTTTTTGAGGTGCATATATCAGATCAATAT	10.6
CATATATTAATATGTACACACATTAATAAAAAAAAA [CACACA_site7504]	7.04
AGTATTCATAAAAATACACACATGGAAAAATAAAAT [CACACA_site1454]	7.16
GGTATTACTTTTAGCTGTACTTATTTAAAAGTCAAA [XGTACX_site530]	7.27

Sequence	gcPBM binding intensity (ln)
ATTTTTTTTTTTTTATGTACATATTAAAAAAAATAT [XGTACX_site1829]	7.01
ATTTTTACTTTTTATGCATGCTATATTTTCAACCAT [TGCATGCA_site871]	7.11
ATTAAGGAAAAATTATGTACACAAAAACATATAACA [XGTACX_site2901]	7.29
TATACATGTTCAATTTGTACATATATAAATATATAT [XGTACX_site3554]	7.09
CTACACAAGCATTAAACACACAAAAGGGATACTTTG [CACACA_site1083]	6.89
ATTCAAAAAAATAAAATAAACATAAATAAACATAAA [TGCATGCA_negctrl_site390]	6.86
GGAAAAAGAAATTAATGTACATGTGGATGTATGAGG [XGTACX_site5468]	7.25
AAAATATTTAAGCATTGTACATATTTTTACAAATAC [XGTACX_site5349]	6.85
AAAATTCATCCAACAAGTACATAAATATAATATTAT [XGTACX_site4596]	7.09
AAGAACAGATAAAATCGTACGTGAAACATGAACTTG [XGTACX_site7793]	6.86
TCTGAAATTTTAGGGGTGCCTGGGACTAAAGAAACG [GTGCAC_site9785]	8.09
TAGAAACCATAAAAATGTACTTAAAAATAGACAATT [XGTACX_site5007]	6.82
AGACTTTTTATGAGCACACACATATATTATGGAGTA [CACACA_site1040]	7.09
TTTAATTCCCATATATGTACACAATTTCTTCTATAA [XGTACX_site1465]	7.08
ATAAATTCATTATATTGTACAAACAAATGAAAAAAA [XGTACX_site8304]	6.92
ATACATAAATATTATTGTACATATATAATATTAATA [XGTACX_site3514]	7
TATGTGTATTTATTTGCATGTTGGTTGTATTTTTTC [TGCATGCA_site479]	6.93
TCTTCATATGTTTACTGTACGAGAAAAAAAAAAAAA [XGTACX_site6418]	7.36
TAATAAAATAAAAATTGTACATTTTATATTTATCAA [XGTACX_site5134]	6.8

Sequence	gcPBM binding intensity (ln)
AATGAAAAAAAAAAAAAAAAGAAGAAGCAAATGGTA [TGCATGCA_negctrl_site335]	6.46
ATAAATAATTATATATGTACACATTATGAATGGATA [XGTACX_site8336]	7.34
AGATTATTTGGACATGCATGTAAAAAAATACGTATA [TGCATGCA_site972]	6.92
ATTTCCCACTTGTGTGTGCGCATGTGTATATATTTA [GTGCAC_site9949]	7.73
AAAAGTGATAATAAGAGTACATAAAAAATTTATTAT [XGTACX_site8037]	6.89
TTATTTGTTTGTTGGATGCTTTTTTTTTTTTTTTTT [CACACA_negctrl_site1697]	7.74
TACATATATATAATATGTACTTATAATATGTATTTA [XGTACX_site2162]	6.83
TATTCTATACTATATTGTACTATAATATAATATACT [XGTACX_site797]	7.08
AAATAATTTATAAATAAATACATTGTTACTTTTTCT [GTGCAC_negctrl_site639]	6.74
ACTAATTACTATAAAACACACATATATTTATTTATA [CACACA_site7263]	7.17
CACATGTATTTATAGGTGCGTAAAAACACTTTATAT [GTGCAC_site9501]	8.77
TTATAGAAACATTGGTGTACGATATTTACTTCTTTC [XGTACX_site7314]	6.81
GGAATAGTCGGGTGCATACACACCTTAAATATAATA [CACACA_site1081]	11.4
AAAGAAAATTCAATAGTGCATAAAAATATATATGTT [GTGCAC_site9680]	8.3
TAAAAAAATTCATGCACACGAAATAAAAAGCACCTT [CACACA_site4667]	8.97
AAACATAAATTTTATTGTACATTATATAGAATTTTC [XGTACX_site576]	6.81
AATACATACATACATACACACATATATATATATTAT [CACACA_site3575]	7.29
TTTTCATTTTTTCGTTGTACATAAATAATATATATT [XGTACX_site856]	7.59
TTTTTTAAAAGATAATATTTTATTAATGTATTCTCA [GTGCAC_negctrl_site598]	6.64
